Sequences and labels used below:
B1: GPR68, Q15743 (parent)
chain: MGNITADNSSMSCTIDHTIHQTLAPVVYVTVLVVGFPANCLSLYFGYLQIKARNELGVYLCNLTVADLFYICSLPFWLQYVLQHDNWSHGDLSCQVCGILLYENIYISVGFLCCISVDRYLAVAHPFRFHQFRTLKAAVGVSVVIWAKELLTSIYFLMHEEVIEDENQHRVCFEHYPIQAWQRAINYYRFLVGFLFPICLLLASYQGILRAVRRSHGTQKSRKDQIQRLVLSTVVIFLACFLPYHVLLLVRSVWEASCDFAKGVFNAYHFSLLLTSFNCVADPVLYCFVSETTHRDLARLRGACLAFLTCSRTGRAREAYPLGAPEASGKSGAQGEEPELLTKLHPAFQTPNSPGSGGFPTGRLA

Data set [1] covers variants of B1. Put plainly: cAMP reporter score (Enrich2 score, wild type = 0); higher = more signal; HEK293T, FACS bins.
Variants of B1 are the subject of data set [2]. The experiment in a line: surface expression score (Enrich2 score, wild type = 0); higher = more signal; HEK293T, FACS bins.

Scores with a large standard error are left out. The source holds two more conditions with little spread; they are left out. In variant names, del marks residues removed and ins residues inserted between the two positions. For some assays here: The data file names ogerin without a concentration.

Turning to L68_F69insGS, the cAMP reporter score in data set [1] (pH 5.5) is -1.94; in data set [1] (pH 6), -1.96; in data set [1] (pH 6, modulator: ogerin) it was -2.16; in data set [1] (pH 6.5, modulator: ogerin), -1.44. Also, the surface expression score in data set [2] is -2.48.
Take L74E: the cAMP reporter score in data set [1] (pH 5.5) was -1.5; in data set [1] (pH 6) it was -2.02; in data set [1] (pH 6.5, modulator: ogerin) it was -0.068. In addition, the surface expression score in data set [2] was -3.06.
As for L74D, the cAMP reporter score in data set [1] (pH 5.5) was -0.692; in data set [1] (pH 6) it was -1.68; in data set [1] (pH 6, modulator: ogerin), -0.743; in data set [1] (pH 6.5, modulator: ogerin), -0.822. Besides, the surface expression score in data set [2] is -2.45.
Consider L74S, for which the cAMP reporter score in data set [1] (pH 5.5) was -1.36; in data set [1] (pH 6), -0.351; in data set [1] (pH 6, modulator: ogerin) it was -0.952; in data set [1] (pH 6.5, modulator: ogerin), -0.913. In addition, the surface expression score in data set [2] was -0.33.
On to L74P, for which the cAMP reporter score in data set [1] (pH 5.5) was -0.946; in data set [1] (pH 6) it was -1.08; in data set [1] (pH 6.5, modulator: ogerin), -2.54. Moreover, the surface expression score in data set [2] is -1.67.
As to L74H, the cAMP reporter score in data set [1] (pH 5.5) was -1.23; in data set [1] (pH 6) it was -1.45; in data set [1] (pH 6, modulator: ogerin), -1.03; in data set [1] (pH 6.5, modulator: ogerin) it was -0.735. For the same variant, the surface expression score in data set [2] was -1.72.
As to L74T, the cAMP reporter score is -1.54 in data set [1] (pH 5.5); -1.51 in data set [1] (pH 6); -0.654 in data set [1] (pH 6, modulator: ogerin). Moreover, the surface expression score in data set [2] is -0.46.
L74W: the cAMP reporter score was -1.94 in data set [1] (pH 5.5); -1.51 in data set [1] (pH 6); -1.55 in data set [1] (pH 6, modulator: ogerin); -1.2 in data set [1] (pH 6.5, modulator: ogerin). Moreover, the surface expression score in data set [2] is -2.62.
Consider L74F, for which the cAMP reporter score was 0.081 in data set [1] (pH 5.5); -0.678 in data set [1] (pH 6); 0.573 in data set [1] (pH 6, modulator: ogerin). The surface expression score in data set [2] is -1.22.
Consider L74K, for which the cAMP reporter score in data set [1] (pH 5.5) was -1.76; in data set [1] (pH 6) it was -0.774; in data set [1] (pH 6, modulator: ogerin), -0.881; in data set [1] (pH 6.5, modulator: ogerin), -0.393. The surface expression score in data set [2] was -2.63.
As for L74A, the cAMP reporter score in data set [1] (pH 5.5) is -1.48; in data set [1] (pH 6, modulator: ogerin), -1.7; in data set [1] (pH 6.5, modulator: ogerin), -1.22. Further, in data set [2], the surface expression score is -0.21.
As to L74M, the cAMP reporter score in data set [1] (pH 5.5) was 0.34; in data set [1] (pH 6), 0.613; in data set [1] (pH 6, modulator: ogerin) it was 0.403; in data set [1] (pH 6.5, modulator: ogerin) it was -0.311. The surface expression score in data set [2] worked out at 1.07.
In the case of L74Y, the cAMP reporter score was -0.414 in data set [1] (pH 5.5); -3.61 in data set [1] (pH 6); -0.806 in data set [1] (pH 6.5, modulator: ogerin). In data set [2], the surface expression score is -0.929.
Take L74I: the cAMP reporter score is -0.579 in data set [1] (pH 5.5); -0.315 in data set [1] (pH 6); -0.771 in data set [1] (pH 6, modulator: ogerin); -0.701 in data set [1] (pH 6.5, modulator: ogerin). Moreover, the surface expression score in data set [2] was 0.194.
For L74C, the cAMP reporter score in data set [1] (pH 5.5) was -1.28; in data set [1] (pH 6, modulator: ogerin), -0.684; in data set [1] (pH 6.5, modulator: ogerin), -0.427. In data set [2], the surface expression score was -0.393.
For the variant L74V, the cAMP reporter score is -0.14 in data set [1] (pH 5.5); -1.62 in data set [1] (pH 6); -0.685 in data set [1] (pH 6, modulator: ogerin); -0.746 in data set [1] (pH 6.5, modulator: ogerin). In addition, the surface expression score in data set [2] is -0.433.
The like results for L74G were, in that order, -1.4, 0.516, -1.98, -1.9 and -2.43.
For the variant L74Q, the cAMP reporter score is -2.44 in data set [1] (pH 5.5) and -0.138 in data set [1] (pH 6.5, modulator: ogerin). Besides, the surface expression score in data set [2] was -1.93.
Take L74R: the cAMP reporter score in data set [1] (pH 5.5) was -1.45; in data set [1] (pH 6), -1.51; in data set [1] (pH 6, modulator: ogerin), -1.52; in data set [1] (pH 6.5, modulator: ogerin), -1.64. For the same variant, the surface expression score in data set [2] was -2.15.
Turning to C72_S73insGS, the cAMP reporter score in data set [1] (pH 5.5) was -0.413; in data set [1] (pH 6) it was -0.547; in data set [1] (pH 6.5, modulator: ogerin), -4.08.
Turning to F69_Y70insG, the cAMP reporter score in data set [1] (pH 5.5) was -1.67; in data set [1] (pH 6) it was -0.785; in data set [1] (pH 6, modulator: ogerin), -0.701; in data set [1] (pH 6.5, modulator: ogerin) it was -0.446.
Consider F69_Y70insGS, for which the cAMP reporter score in data set [1] (pH 5.5) is -0.696; in data set [1] (pH 6), -1.02; in data set [1] (pH 6, modulator: ogerin), -0.69; in data set [1] (pH 6.5, modulator: ogerin) it was -1.28. For the same variant, the surface expression score in data set [2] was -1.98.
The like results for A66W were, in that order, -1.22, -0.377, -1.07, -1.4 and 0.142.
The like results for A66S were, in that order, -0.49, 0.149, -0.193, -1.15 and -0.991.
As for A66R, the cAMP reporter score in data set [1] (pH 5.5) was -0.794; in data set [1] (pH 6) it was -0.558; in data set [1] (pH 6.5, modulator: ogerin), -1.25. Moreover, the surface expression score in data set [2] is 0.366.
On to A66T, for which the cAMP reporter score in data set [1] (pH 5.5) was -1.43; in data set [1] (pH 6, modulator: ogerin) it was -1.23; in data set [1] (pH 6.5, modulator: ogerin), -0.73. The surface expression score in data set [2] is -0.967.
Turning to A66V, the cAMP reporter score in data set [1] (pH 5.5) is -2.31; in data set [1] (pH 6), 0.124; in data set [1] (pH 6, modulator: ogerin) it was -1.03; in data set [1] (pH 6.5, modulator: ogerin) it was -0.701. Further, the surface expression score in data set [2] is -0.097.
For S73_P75del, in that order: -1.59, -1.1, -2.04, -1.16 and -2.33.
For L68del, in that order: -0.483, 0.073, -1.53, -3.26 and 0.469.
As for Y70_I71insG, the cAMP reporter score is -1.49 in data set [1] (pH 5.5); -1.14 in data set [1] (pH 6); -2.32 in data set [1] (pH 6.5, modulator: ogerin). In data set [2], the surface expression score was -0.58.
Regarding D67del, the cAMP reporter score in data set [1] (pH 5.5) was -1.69; in data set [1] (pH 6), -0.75; in data set [1] (pH 6, modulator: ogerin), -1.83; in data set [1] (pH 6.5, modulator: ogerin), -0.484. In addition, in data set [2], the surface expression score was -2.69.
On to Y70_I71insGSG, for which the cAMP reporter score in data set [1] (pH 5.5) is -2.37; in data set [1] (pH 6) it was -1.54; in data set [1] (pH 6, modulator: ogerin) it was -2.27; in data set [1] (pH 6.5, modulator: ogerin), -1.68.
Consider W77_L78del, for which the cAMP reporter score in data set [1] (pH 5.5) is -1.17; in data set [1] (pH 6) it was -1.45; in data set [1] (pH 6, modulator: ogerin), -1.56; in data set [1] (pH 6.5, modulator: ogerin), -0.587. For the same variant, in data set [2], the surface expression score was -0.043.
